These are yes or no findings as the source states them, for the method shown. Some binding calls cover weakened binding; strength is not graded here. For some assays here: Where a sequence is shown, tags or fusion partners need not be part of it.
What was measured:
Test in all cases: two-hybrid; bacterial two-hybrid (BACTH) in E. coli BTH101; T25 (pKT25/pKNT25) and T18 (pUT18/pUT18C) fusions; spots on LB with X-Gal and IPTG, 25°C, imaged after 48 h
[1] = target: T1, YukC (full length), bacterial two-hybrid fusion (Bacillus subtilis 168) (UniProt P71070)
T1 sequence: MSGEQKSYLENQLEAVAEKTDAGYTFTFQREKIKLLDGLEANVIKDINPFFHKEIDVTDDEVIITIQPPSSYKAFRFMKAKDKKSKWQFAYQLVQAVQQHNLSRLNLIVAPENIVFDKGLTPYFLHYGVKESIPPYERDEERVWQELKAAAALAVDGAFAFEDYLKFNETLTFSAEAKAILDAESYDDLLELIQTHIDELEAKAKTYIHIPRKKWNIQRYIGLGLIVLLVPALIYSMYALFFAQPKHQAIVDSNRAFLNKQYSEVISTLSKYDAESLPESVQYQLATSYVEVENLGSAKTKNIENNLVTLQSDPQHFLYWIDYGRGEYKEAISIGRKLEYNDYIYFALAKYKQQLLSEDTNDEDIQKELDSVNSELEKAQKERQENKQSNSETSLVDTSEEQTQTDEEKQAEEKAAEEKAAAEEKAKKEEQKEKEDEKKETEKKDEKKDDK

Sequences of proteins named here, by UniProt entry; tags and fusion partners are left off. Residues count along the entry.
UniProt P42296, residues 1-97: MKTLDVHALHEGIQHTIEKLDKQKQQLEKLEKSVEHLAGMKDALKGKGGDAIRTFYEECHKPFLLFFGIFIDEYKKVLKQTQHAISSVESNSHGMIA

[2] = target: T2, YukD, bacterial two-hybrid fusion (Bacillus subtilis 168) (UniProt P71071)
T2 sequence: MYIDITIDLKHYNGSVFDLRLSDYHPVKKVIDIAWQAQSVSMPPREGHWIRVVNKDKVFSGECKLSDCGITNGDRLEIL

[3] = target: T3, YueB (full length), bacterial two-hybrid fusion (Bacillus subtilis 168) (UniProt O32101)
T3 sequence: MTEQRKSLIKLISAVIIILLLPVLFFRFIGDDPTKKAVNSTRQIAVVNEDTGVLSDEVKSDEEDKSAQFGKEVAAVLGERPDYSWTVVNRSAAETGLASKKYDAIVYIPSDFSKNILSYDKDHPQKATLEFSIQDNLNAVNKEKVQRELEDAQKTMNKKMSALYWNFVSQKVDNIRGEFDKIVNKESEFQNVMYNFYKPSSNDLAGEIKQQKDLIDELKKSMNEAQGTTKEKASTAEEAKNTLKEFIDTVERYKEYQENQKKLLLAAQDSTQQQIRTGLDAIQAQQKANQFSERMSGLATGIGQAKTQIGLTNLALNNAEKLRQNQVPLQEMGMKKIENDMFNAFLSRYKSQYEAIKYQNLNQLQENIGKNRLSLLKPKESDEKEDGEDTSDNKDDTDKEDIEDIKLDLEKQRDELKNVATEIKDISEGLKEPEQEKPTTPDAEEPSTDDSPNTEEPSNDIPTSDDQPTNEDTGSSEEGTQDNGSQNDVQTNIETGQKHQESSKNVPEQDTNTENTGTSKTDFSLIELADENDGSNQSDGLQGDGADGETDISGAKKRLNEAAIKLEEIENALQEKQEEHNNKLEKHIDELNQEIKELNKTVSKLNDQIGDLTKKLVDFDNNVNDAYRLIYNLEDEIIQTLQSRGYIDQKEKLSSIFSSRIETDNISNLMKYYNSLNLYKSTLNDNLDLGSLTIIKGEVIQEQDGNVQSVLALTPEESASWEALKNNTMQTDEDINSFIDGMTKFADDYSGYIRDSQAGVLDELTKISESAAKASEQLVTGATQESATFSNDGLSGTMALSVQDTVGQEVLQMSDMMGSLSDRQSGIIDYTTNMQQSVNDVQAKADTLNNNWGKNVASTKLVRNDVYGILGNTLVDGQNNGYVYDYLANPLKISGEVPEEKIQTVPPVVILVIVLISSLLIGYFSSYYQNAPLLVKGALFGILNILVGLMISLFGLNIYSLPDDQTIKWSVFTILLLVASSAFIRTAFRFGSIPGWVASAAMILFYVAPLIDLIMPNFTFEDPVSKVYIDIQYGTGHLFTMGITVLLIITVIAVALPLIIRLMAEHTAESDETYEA

[4] = target: YxiD N-terminal 97-amino-acid region (YxiDN), bacterial two-hybrid fusion (Bacillus subtilis 168) (UniProt P42296)
[5] = target: T4, YueC, bacterial two-hybrid fusion (Bacillus subtilis 168) (UniProt O32100)
T4 sequence: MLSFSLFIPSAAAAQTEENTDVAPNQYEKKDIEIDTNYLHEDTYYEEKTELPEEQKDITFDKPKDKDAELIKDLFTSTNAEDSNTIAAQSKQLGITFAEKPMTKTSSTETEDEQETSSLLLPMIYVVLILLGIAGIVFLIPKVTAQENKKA

In the case of “YxiD N-terminal 97-amino-acid region (YxiDN), bacterial two-hybrid fusion (from UniProt P42296 1-97) (domain or fragment)”, the binding [1] is reported as “binds”, the binding [2] is reported as “no binding” and the binding [3] is reported as “no binding”. For the same substance, the binding [4] was “binds” and the binding [5] was “no binding”.
